According to the supplement of paper PMC11741623:
Some of the results follow. Interaction screen of human proteins with wild-type SARS-CoV-2 proteins by split-DHFR complementation in yeast, 1 µg/mL methotrexate. Value = fitness of the pair (three or more lineages) minus that of the viral protein without a human partner, on a scale set by negative (0) and fused positive (1) controls, mean of up to three cultures; higher = more likely to interact. Active = false discovery rate below 0.05 (one-sided t-test) in at least one culture. Nearly all pairs are not hits, and differences among them are mostly noise (correlation between cultures about 0.3); most hits were seen in one culture only. Human sequences are the Swiss-Prot entries looked up by gene name; the clone may be another isoform. NSP2 values were corrected by the authors for a growth advantage. Listed are human proteins with a hit and a random twelfth of the others.

B1: SMAD4, Q13485 (protein)
chain: MDNMSITNTPTSNDACLSIVHSLMCHRQGGESETFAKRAIESLVKKLKEKKDELDSLITAITTNGAHPSKCVTIQRTLDGRLQVAGRKGFPHVIYARLWRWPDLHKNELKHVKYCQYAFDLKCDSVCVNPYHYERVVSPGIDLSGLTLQSNAPSSMMVKDEYVHDFEGQPSLSTEGHSIQTIQHPPSNRASTETYSTPALLAPSESNATSTANFPNIPVASTSQPASILGGSHSEGLLQIASGPQPGQQQNGFTGQPATYHHNSTTTWTGSRTAPYTPNLPHHQNGHLQHHPPMPPHPGHYWPVHNELAFQPPISNHPAPEYWCSIAYFEMDVQVGETFKVPSSCPIVTVDGYVDPSGGDRFCLGQLSNVHRTEAIERARLHIGKGVQLECKGEGDVWVRCLSDHAVFVQSYYLDREAGRAPGDAVHKIYPSAYIKVFDLRQCHRQMQQQAATAQAAAAAQAAAVAGNIPGPGSVGGIAPAISLSAAAGIGVDDLRRLCILRMSFVKGWGPDYPRQSIKETPCWIEIHLHRALQLLDEVLHTMPIADPQPLD
B2: FGL1, Q08830 (protein)
chain: MAKVFSFILVTTALTMGREISALEDCAQEQMRLRAQVRLLETRVKQQQVKIKQLLQENEVQFLDKGDENTVIDLGSKRQYADCSEIFNDGYKLSGFYKIKPLQSPAEFSVYCDMSDGGGWTVIQRRSDGSENFNRGWKDYENGFGNFVQKHGEYWLGNKNLHFLTTQEDYTLKIDLADFEKNSRYAQYKNFKVGDEKNFYELNIGEYSGTAGDSLAGNFHPEVQWWASHQRMKFSTWDRDHDNYEGNCAEEDQSGWWFNRCHSANLNGVYYSGPYTAKTDNGIVWYTWHGWWYSLKSVVMKIRPNDFIPNVI
B3: GPR37, O15354 (protein)
chain: MRAPGALLARMSRLLLLLLLKVSASSALGVAPASRNETCLGESCAPTVIQRRGRDAWGPGNSARDVLRARAPREEQGAAFLAGPSWDLPAAPGRDPAAGRGAEASAAGPPGPPTRPPGPWRWKGARGQEPSETLGRGNPTALQLFLQISEEEEKGPRGAGISGRSQEQSVKTVPGASDLFYWPRRAGKLQGSHHKPLSKTANGLAGHEGWTIALPGRALAQNGSLGEGIHEPGGPRRGNSTNRRVRLKNPFYPLTQESYGAYAVMCLSVVIFGTGIIGNLAVMCIVCHNYYMRSISNSLLANLAFWDFLIIFFCLPLVIFHELTKKWLLEDFSCKIVPYIEVASLGVTTFTLCALCIDRFRAATNVQMYYEMIENCSSTTAKLAVIWVGALLLALPEVVLRQLSKEDLGFSGRAPAERCIIKISPDLPDTIYVLALTYDSARLWWYFGCYFCLPTLFTITCSLVTARKIRKAEKACTRGNKRQIQLESQMNCTVVALTILYGFCIIPENICNIVTAYMATGVSQQTMDLLNIISQFLLFFKSCVTPVLLFCLCKPFSRAFMECCCCCCEECIQKSSTVTSDDNDNEYTTELELSPFSTIRREMSTFASVGTHC
B4: ZBTB48, P10074 (protein)
chain: MDGSFVQHSVRVLQELNKQREKGQYCDATLDVGGLVFKAHWSVLACCSHFFQSLYGDGSGGSVVLPAGFAEIFGLLLDFFYTGHLALTSGNRDQVLLAARELRVPEAVELCQSFKPKTSVGQAAGGQSGLGPPASQNVNSHVKEPAGLEEEEVSRTLGLVPRDQEPRGSHSPQRPQLHSPAQSEGPSSLCGKLKQALKPCPLEDKKPEDCKVPPRPLEAEGAQLQGGSNEWEVVVQVEDDGDGDYMSEPEAVLTRRKSNVIRKPCAAEPALSAGSLAAEPAENRKGTAVPVECPTCHKKFLSKYYLKVHNRKHTGEKPFECPKCGKCYFRKENLLEHEARNCMNRSEQVFTCSVCQETFRRRMELRVHMVSHTGEMPYKCSSCSQQFMQKKDLQSHMIKLHGAPKPHACPTCAKCFLSRTELQLHEAFKHRGEKLFVCEECGHRASSRNGLQMHIKAKHRNERPHVCEFCSHAFTQKANLNMHLRTHTGEKPFQCHLCGKTFRTQASLDKHNRTHTGERPFSCEFCEQRFTEKGPLLRHVASRHQEGRPHFCQICGKTFKAVEQLRVHVRRHKGVRKFECTECGYKFTRQAHLRRHMEIHDRVENYNPRQRKLRNLIIEDEKMVVVALQPPAELEVGSAEVIVESLAQGGLASQLPGQRLCAEESFTGPGVLEPSLIITAAVPEDCDT
B5: SAMSN1, Q9NSI8 (protein)
chain: MLKRKPSNVSEKEKHQKPKRSSSFGNFDRFRNNSLSKPDDSTEAHEGDPTNGSGEQSKTSNNGGGLGKKMRAISWTMKKKVGKKYIKALSEEKDEEDGENAHPYRNSDPVIGTHTEKVSLKASDSMDSLYSGQSSSSGITSCSDGTSNRDSFRLDDDGPYSGPFCGRARVHTDFTPSPYDTDSLKIKKGDIIDIICKTPMGMWTGMLNNKVGNFKFIYVDVISEEEAAPKKIKANRRSNSKKSKTLQEFLERIHLQEYTSTLLLNGYETLEDLKDIKESHLIELNIENPDDRRRLLSAAENFLEEEIIQEQENEPEPLSLSSDISLNKSQLDDCPRDSGCYISSGNSDNGKEDLESENLSDMVHKIIITEPSD

These binders were tested against SARS-CoV-2 NSP13 (assay: yeast fitness gain over the viral ORF with no human partner (scaled fitness); higher = more likely to interact).
Description: (§1)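 Split mouse DHFR complementation in pooled diploid yeast: human ORFeome clones carry one fragment and viral ORFs the other; barcoded lineages compete in 1 µg/mL methotrexate and fitness is read by barcode sequencing in up to three cultures.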

B1 was tested. Which yeast fitness gain did it give?
The yeast fitness gain was inactive: -0.135.

With B3 as the binder, how does the yeast fitness gain read?
The yeast fitness gain was inactive: 0.129.

B4 was tested. Which yeast fitness gain did it give?
The yeast fitness gain was inactive: 0.00711.

With B5 as the binder, how does the yeast fitness gain read?
Its yeast fitness gain is inactive: 0.102.

Each binder was assayed against SARS-CoV-2 NSP2 in the same assay as above.
Description: as §1

B1 was tested. Which yeast fitness gain did it give?
The yeast fitness gain was inactive: -0.0423.

For B2, which yeast fitness gain is on record?
Its yeast fitness gain is inactive: -0.183.

B4 was tested. Which yeast fitness gain did it give?
The yeast fitness gain was inactive: -0.21.

With B5 as the binder, how does the yeast fitness gain read?
The yeast fitness gain was inactive: 0.0182.

Each binder was assayed against SARS-CoV-2 NSP8 in the same assay as above.
Description: as §1

For B1, which yeast fitness gain is on record?
Its yeast fitness gain is inactive: -0.131.

Each binder was assayed against SARS-CoV-2 ORF3B in the same assay as above.
Description: as §1

How did the yeast fitness gain turn out when B1 was run?
Its yeast fitness gain is inactive: 0.0518.

For B4, which yeast fitness gain is on record?
Its yeast fitness gain is inactive: -0.118.

For B5, which yeast fitness gain is on record?
The yeast fitness gain was inactive: 0.205.

Each binder was assayed against SARS-CoV-2 ORF6 in the same assay as above.
Description: as §1

How did the yeast fitness gain turn out when B1 was run?
The yeast fitness gain was inactive: -0.0235.

How did the yeast fitness gain turn out when B3 was run?
Its yeast fitness gain is inactive: -0.0352.

The binders below were run against SARS-CoV-2 ORF7A in the same assay as above.
Description: as §1

Which yeast fitness gain does the source give for B1 here?
The yeast fitness gain was inactive: -0.0249.

What follows are binders tested against SARS-CoV-2 ORF8 in the same assay as above.
Description: as §1

How did the yeast fitness gain turn out when B1 was run?
The yeast fitness gain was inactive: -0.133.

For B2, which yeast fitness gain is on record?
Its yeast fitness gain is inactive: -0.0957.

These binders were tested against SARS-CoV-2 NSP12 in the same assay as above.
Description: as §1

For B2, which yeast fitness gain is on record?
The yeast fitness gain was inactive: 0.0863.

Which yeast fitness gain does the source give for B4 here?
Its yeast fitness gain is inactive: -0.153.

What follows are binders tested against SARS-CoV-2 ORF3A in the same assay as above.
Description: as §1

Which yeast fitness gain does the source give for B2 here?
Its yeast fitness gain is inactive: -0.0215.

What follows are binders tested against SARS-CoV-2 ORF7B in the same assay as above.
Description: as §1

With B2 as the binder, how does the yeast fitness gain read?
The yeast fitness gain was inactive: 0.399.

What follows are binders tested against SARS-CoV-2 ORF9B in the same assay as above.
Description: as §1

For B2, which yeast fitness gain is on record?
The yeast fitness gain was inactive: -0.0526.

With B3 as the binder, how does the yeast fitness gain read?
Its yeast fitness gain is inactive: -0.116.

For B4, which yeast fitness gain is on record?
The yeast fitness gain was inactive: -0.0437.

For B5, which yeast fitness gain is on record?
Its yeast fitness gain is inactive: -0.307.

What follows are binders tested against SARS-CoV-2 NSP5 in the same assay as above.
Description: as §1

With B3 as the binder, how does the yeast fitness gain read?
The yeast fitness gain was inactive: -0.061.

Which yeast fitness gain does the source give for B4 here?
The yeast fitness gain was inactive: -0.359.

What follows are binders tested against SARS-CoV-2 ORF10 in the same assay as above.
Description: as §1

How did the yeast fitness gain turn out when B3 was run?
Its yeast fitness gain is inactive: -0.0087.
